Experimental data: patent publication US10731143B2, “Methods and compositions for stabilizing trans-splicing intein modified proteases” (AGRIVIDA, INC., priority 2014, dated 2020)

B1: NI: solubility optimized first precursor: Savinase N-extein fused to Gp41-1 N-intein, DPNG linker and Trx; SEQ ID NO: 1 (protein)
chain: MAEEAKEKYLIGFNEQEAVSEFVEQVEANDEVAILSEEEEVEIELLHEFETIPVLSVELSPEDVDALELDPAISYIEEDAEVTTMAQSVPWGISRVQAPAAHNRGLTGSGVKVAVLDTGISTHPDLNIRGGASFVPGEPSTQDGNGHGTHVAGTIAALNNSIGVLGVAPSAELYAVKVLGASGSGSVSSIAQGLEWAGNNGMHVANLSLGSPSPSATLEQAVNSATSRGVLVVAASGNSGAGSISYPARYANAMAVGATDQNNNRASFSQYGAGLDIVAPGVNVQSTYPGCLDLKTQVQTPQGMKEISNIQVGDLVLSNTGYNEVLNVFPKSKKKSYKITLEDGKEIICSEEHLFPTQTGEMNISGGLKEGMCLYVKEDPNG[sequence of about 100 residues not given]
modifications: Synthetic construct, NI-DPNG-TRX
B2: IC: solubility optimized second precursor: Trx, DPNG linker, mutated Gp41-1 C-intein fused to Savinase C-extein from S317; SEQ ID NO: 2 (protein)
chain: [sequence of about 100 residues not given]DPNGMTKKITKIEELDERELIDIEVSGNHLFYANDIGTHNSTYASLNGTSMATPHVAGAAALVKQKNPSWSNVQIRNHLKNTATSLGSTNLYGSGLVNAEAATR
modifications: Synthetic construct, Trx-DPNG-MTT-IC

Test: Expression of solubility optimized NI and IC in E. coli, total and soluble protein profiles
Type: physicochemical
Settings: E. coli BL21 Gold (DE3), IPTG induction, lysate clarified at 5000 g
Method: For expression in E. coli, nucleotide sequences of the solubility optimized NI and IC were cloned into the pET Duet1 (Novagen) expression vector downstream to the IPTG inducible T7 promoter. NI-DPNG-Trx was cloned between the NcoI and PstI sites, Trx-DPNG-MTT-IC[L122G] was cloned between the NdeI and KpnI sites. Plasmids were introduced into the E. coli strain BL21 Gold (DE3) (Invitrogen).
To express the proteins, overnight starter cultures grown in LB+Carbenicillin (100 mg/L) at 30° C. at 300 rpm were diluted 40-fold into fresh LB+Carb 100 mg/L, incubated further at 30° C. at 300 rpm. When cultures reached OD600 0.6, IPTG was added to a final conc. of 0.5 mg/L to induce expression and the t=0 time point samples were harvested. Aliquots (2 mL) were taken thereof at t=1.5, 3.0, 6.0 and 22.0 hrs. Cell were pelleted and lysed in 200 μL lysis buffer at 30° C., 300 rpm for 1 hour and lysates were split to two aliquots. Lysis buffer was 1:9 mix of [10× Fastbreak:mTSB buffer (150 mM NaCl, 50 mM Trisbase, 2 mM CaCl2, pH=7.5, 1 mM DTT)]+0.2 L/mL Benzonase (Novagen). To determine the total protein profile, to 20 μL cell lysate 20 μL 2×SDS loading dye+5% βME was added, samples were heated at 95° C. for 5 min and a 5 μL aliquot was separated on 12% SDS/PAGE, and gels were Coomassie stained. […]

| Molecule | fraction to which the protein is expressed |
| --- | --- |
| B1 | predominantly expressed to the soluble fraction |
| B2 | predominantly expressed to the soluble fraction |
